Source: the supplement of paper PMC10369915
The other results are listed elsewhere or left out. Cut-off read from the data, not from the text of the source: active = 3.2 or more and inactive = the rest. Only a few entries rise above the background.

Legend:
Assay in all cases: enrichment score (SH2-bound / input frequency) (ratio); bacterial display of known human phosphotyrosine sites (pTyr-Var adds point mutants) read by sequencing; higher = stronger binding; tyrosines were phosphorylated by kinases first
Conditions in all cases: peptide library: Human pTyr
[1] = target: SHP2 C-SH2 domain E139D
[2] = target: SHP2 C-SH2 domain wild-type
[3] = target: SHP2 N-SH2 domain L43F
[4] = target: SHP2 N-SH2 domain T42A
[5] = target: SHP2 N-SH2 domain T52S
[6] = target: SHP2 N-SH2 domain wild-type

Measured: enrichment score
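Note: displayed peptides selected on beads carrying the immobilized SH2 domain, with library peptides lacking any tyrosine serving as negative controls.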

FGLSKKIYNGDAARQ [UFO_HUMAN_698_YA]
inactive: [1] 0.903 | [2] 0.866 | [3] 0.504 | [4] 0.447 | [5] 1.29 | [6] 0.579

ASYTDSYYKGQTALH [TRPV1_HUMAN_200]
inactive: [1] 0.656 | [2] 0.564 | [3] 0.639 | [4] 0.522 | [5] 0.637 | [6] 0.569

ITETESPYQELQGQR [TYOBP_HUMAN_91]
inactive: [1] 0.71 | [2] 0.627 | [3] 0.756 | [4] 0.869 | [5] 0.802 | [6] 0.872

NSKFDTIYQILLKKK [TRI25_HUMAN_278]
inactive: [1] 2.66 | [2] 1.73 | [3] 1.91 | [4] 2.05 | [5] 1.9 | [6] 2.65

ELTAEFLYDEVHPKQ [TWF2_HUMAN_309]
inactive: [1] 0.64 | [2] 0.805 | [3] 0.947 | [4] 0.833 | [5] 0.74 | [6] 1.08

FGSGDDPYSSAEPHV [TRIM28_HUMAN_458]
inactive: [1] 0.524 | [2] 0.434 | [3] 0.458 | [4] 0.43 | [5] 0.555 | [6] 0.553

ADIDEGLYSRQLYVL [UBA1_HUMAN_55]
inactive: [1] 0.823 | [2] 0.764 | [3] 0.809 | [4] 0.793 | [5] 0.852 | [6] 1.49

KIYSGDYYRQGCASK [TYRO3_HUMAN_686]
inactive: [1] 1.29 | [2] 1.26 | [3] 1.44 | [4] 1.47 | [5] 1.71 | [6] 1.4

VPEGHEAYRVREDGD [TYK2_HUMAN_1055_YA]
inactive: [1] 1.13 | [2] 0.954 | [3] 1.03 | [4] 1.17 | [5] 1.16 | [6] 1.08

KVVYENAYGQFIGPH [TRXR1_HUMAN_281]
inactive: [1] 1 | [2] 1.33 | [3] 0.879 | [4] 1.84 | [5] 0.855 | [6] 0.871

EEDSSIDYDLNLPDT [TRPC4_HUMAN_959]
inactive: [1] 0.983 | [2] 0.951 | [3] 0.96 | [4] 0.993 | [5] 1.05 | [6] 0.933

GVVDSGVYAVPPPAE [BCAR1_HUMAN_410]
inactive: [1] 0.673 | [2] 0.533 | [3] 0.482 | [4] 0.498 | [5] 0.646 | [6] 0.528

VIDDESDYFASDSNQ [TRIP4_HUMAN_289]
inactive: [1] 1.19 | [2] 1.01 | [3] 0.985 | [4] 1.06 | [5] 1.01 | [6] 1.15

SPPAEDVYDVPPPAP [BCAR1_HUMAN_362]
inactive: [1] 0.811 | [2] 0.77 | [3] 0.593 | [4] 0.773 | [5] 0.774 | [6] 0.981

ASATDSAYKGQTALH [TRPV1_HUMAN_200_YA]
inactive: [1] 0.662 | [2] 0.583 | [3] 0.628 | [4] 0.608 | [5] 0.638 | [6] 0.482

DTVTHEDYVTTRLGG [TRPC4_HUMAN_972]
inactive: [1] 0.752 | [2] 0.446 | [3] 0.489 | [4] 0.516 | [5] 0.614 | [6] 0.79

AVPEGHEYARVREDG [TYK2_HUMAN_1054_YA]
inactive: [1] 1.13 | [2] 2.37 | [3] 0.805 | [4] 0.734 | [5] 0.65 | [6] 0.525

TSSKEDDYESDAATI [UBR4_HUMAN_370]
inactive: [1] 0.815 | [2] 0.881 | [3] 0.891 | [4] 0.722 | [5] 1.14 | [6] 0.939
